Results on 34 variants are retold here after the RNAGym collection of RNA variant scans (doi:10.1093/nar/gkz1192).

The source gives no read counts; variants with many changes may rest on few reads.

B1: CPEB3 Ribozyme (parent)
chain: UAACAGGGGGCCACAGCAGAAGCGUUCACGUCGCAGCCCCUGUCAGAUUCUGGUGAAUCUGCGAAUUCUGCUGUAUAUCUC

Variants of B1 are the subject of the data set. As to the kind of experiment: self-cleavage, relative activity (ratio to wild type); higher = more cleavage; in vitro, sequencing. The method, boiled down: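 CPEB3 self-cleaving ribozyme mutant libraries were made by rounds of error-prone PCR, barcoded, and transcribed in vitro with T7 RNA polymerase for 5 hours at 37°C. Cleavage occurred during transcription and a 15 min DNase I step before EDTA stop. RNAs were reverse transcribed with template switching and Illumina-sequenced, with DNA sequencing mapping barcodes to variants. Relative activity is the variant's cleaved/total read fraction divided by wild type's (minimum 5 reads), averaged across three batches.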
For the variant UAACAGGGGGCCACAGCAGAAGCGUUCACGUCGCAGACCCUGCCAGAUUCUGGUGAAUCUGCGAAUUCUGCUGUAUAACUC [C37A U43C U78A], the self-cleavage is 0.1.

On to UAACAGGGGGCCACAGCAGAAGCGUUCACGUCGCAGUCCCUGUCAGAUUCUGGAGAAUCUGCGAAUUCUGAUGUAUAUCUC [C37U U54A C71A], for which the self-cleavage was determined as 0.18.

UAACAGGGGGCCACAGCAGAAGCGUUCACGUCGCAGCGCCUGUCAGAUUCUGGUGAAUCUGAGAAUUCUGCGGUAUUUCUC [C38G C62A U72G A77U]: the self-cleavage came to 0.22.

As for UAACAGGGGGCCACAGCAGAAGCGUUCACGUCGCAGCACCUGUCAGAUUCUGGUGAGUCUGCGAAUUCUGCUGUAUAUCCC [C38A A57G U80C], the self-cleavage was 0.25.

UAACAGGGGGCCACAGCAGAAGCGUUCACGUCGCAGUCCCUGUCAGAUUCUGGUGAGUCUGCGAAUUCUGCUGUAUACCUC [C37U A57G U78C]: the self-cleavage was 0.5.

As to UAACAGGGGGCCACAGCAGAAGCGUUCACGUCGCAGUCCGUGUCAGAUUCUGGUGAGUCUGCGAAUUCUGCUGUAUAUCUC [C37U C40G A57G], the self-cleavage turned out to be 0.15.

On to UAACAGGGGGCCACAGCAGAAGCGUUCACGUCGCAGGCCCUGUCAGAUUCUGGAGAUUCUGCGAAUUCUGCUGUAUAUCUC [C37G U54A A57U], for which the self-cleavage amounted to 0.36.

For UAACAGGGGGCCACAGCAGAAGCGUUCACGUCGCAGACCCAGUCUGAUCCUGGUGAAUCUGCGAAUUCUGCAGCAUAUCUU [C37A U41A A45U U49C U72A U74C C81U], the self-cleavage was found to be 0.02.

Take UAACAGGGGGCCACAGCAGAAGCGUUCACGUCGCAGCACCUGUCAGAUUCUGGUGAACCUGCGAAUUCAGCUGUAUAUCUC [C38A U58C U69A]: the self-cleavage stood at 0.09.

UAACAGGGGGCCACAGCAGAAGCGUUCACGUCGCAGUCCCCGUCAGAUUCUGGUGAAUCUGCGAAUUCUGCUGUAUAUCAC [C37U U41C U80A]: the self-cleavage came out at 1.1.

Consider UAACAGGGGGCCACAGCAGAAGCGUUCACGUCGCAGCUCCUGUCGGAUUCUGGUGAAUCUGCGAGUUCUGCUGUAUAUCUC [C38U A45G A65G], for which the self-cleavage amounted to 0.21.

Take UAACAGGGGGCCACAGCAGAAGCGUUCACGUCGCAGACCCUGUCAGAUUCUGGACAAUCAGCGAAUUCUGCUGUAUAUCUC [C37A U54A G55C U60A]: the self-cleavage came out at 0.14.

As for UAACAGGGGGCCACAGCAGAAGCGUUCACGUCGCAGGCCCUGUCAGAUUCUGGUGAAUCUGGGAAUUCUGCUGUAUACCUC [C37G C62G U78C], the self-cleavage came out at 0.11.

Take UAACAGGGGGCCACAGCAGAAGCGUUCACGUCGCAGCUCCUGUCAGGUUCAGGUGAAUCUGCGGAUUCUGCUGCAUAUCUC [C38U A47G U51A A64G U74C]: the self-cleavage came out at 0.86.

Consider UAACAGGGGGCCACAGCAGAAGCGUUCACGUCGCAGCACGCGUCAGAUUCUGGUGAAUCCGCGAAUUCUGCUGUAUAUCUC [C38A C40G U41C U60C], for which the self-cleavage amounted to 0.06.

In the case of UAACAGGGGGCCACAGCAGAAGCGUUCACGUCGCAGCACCUGUCAGGUCCUGGUGAAUCCGCGAAUUCUGCUUUAUAUCUC [C38A A47G U49C U60C G73U], the self-cleavage was 0.02.

In the case of UAACAGGGGGCCACAGCAGAAGCGUUCACGUCGCAGCUCCUGUCGGAUUCUGGUGAAUCUGUGAAUUCUGCAGUAUAUCUC [C38U A45G C62U U72A], the self-cleavage was 0.16.

As to UAACAGGGGGCCACAGCAGAAGCGUUCACGUCGCAGCGCCUGUCAGAUUCUGGUGAAUCUGCGAAUUCUGCUGUGUAUCCC [C38G A75G U80C], the self-cleavage came out at 0.07.

UAACAGGGGGCCACAGCAGAAGCGUUCACGUCGCAGGCCCUGUCAGAUUCUGGUGAAUCCGCGAAUUCUGCUGUAUAGCUC [C37G U60C U78G]: the self-cleavage was found to be 0.12.

As to UAACAGGGGGCCACAGCAGAAGCGUUCACGUCGCAGGCCCUGUCAGAUUCCGGUGAAUUUGCGAAUUCUGCUGUAUAUCUC [C37G U51C C59U], the self-cleavage is 0.41.

With UAACAGGGGGCCACAGCAGAAGCGUUCACGUCGCAGCACCUGCCAGAUUCUGGUGAAUCUGCGAAUUCUGCUGUAUAACUC [C38A U43C U78A], the self-cleavage turned out to be 0.16.

In the case of UAACAGGGGGCCACAGCAGAAGCGUUCACGUCGCAGUCCCUGUCAGAUUCUGGUGAAUCUGCGAACUCUGCUGUAUAUCCC [C37U U66C U80C], the self-cleavage was 0.12.

As to UAACAGGGGGCCACAGCAGAAGCGUUCACGUCGCAGGUCCUGCCAGAUUCUGGAGAAUCUGCGAAUUCAGCUGUAUAUCUG [C37G C38U U43C U54A U69A C81G], the self-cleavage came out at 0.07.

Consider UAACAGGGGGCCACAGCAGAAGCGUUCACGUCGCAGCACCUGUUAGAUCCUGGUGAAUCUGCGAAUUCUGCUGUAUAUCUC [C38A C44U U49C], for which the self-cleavage turned out to be 0.07.

With UAACAGGGGGCCACAGCAGAAGCGUUCACGUCGCAGUCCCUGUCAGAUUCCGGUGAAUCUGCGAAUUCUGCUGCAUAUCUC [C37U U51C U74C], the self-cleavage came to 1.22.

In the case of UAACAGGGGGCCACAGCAGAAGCGUUCACGUCGCAGACCCUGUCAGAUUCUAGAGAGCCUGCGAAUUCUGCUGUACAUCUC [C37A G52A U54A A57G U58C U76C], the self-cleavage worked out at 0.05.

In the case of UAACAGGGGGCCACAGCAGAAGCGUUCACGUCGCAGCACCUGUCAGAUUCUGGUGAAUCUGCGAACUCUGCUGUGUAUCUC [C38A U66C A75G], the self-cleavage was found to be 0.14.

Turning to UAACAGGGGGCCACAGCAGAAGCGUUCACGUCGCAGCACCUGUCCGGUUCUGGUGGAUCUGCGAAUUCUGCUGUAUAUCUC [C38A A45C A47G A56G], the self-cleavage stood at 0.17.

Consider UAACAGGGGGCCACAGCAGAAGCGUUCACGUCGCAGACCCUGUCAGAUCCUGGUGAAUCUGCGAAUUCUGCUGUAUUUCUC [C37A U49C A77U], for which the self-cleavage amounted to 0.57.

In the case of UAACAGGGGGCCACAGCAGAAGCGUUCACGUCGCAGUCCCUGUCAGAUCCUGGUGAAUCUGCGGAUUCUGCUGUAUAUCUC [C37U U49C A64G], the self-cleavage came to 0.19.

UAACAGGGGGCCACAGCAGAAGCGUUCACGUCGCAGUCCCCGUCAGAUUCUGGUGAAUCAGCGAAUUCUGCUGUAUAUCUC [C37U U41C U60A]: the self-cleavage is 0.24.

Take UAACAGGGGGCCACAGCAGAAGCGUUCACGUCGCAGACCCUGUCAGAUUCUGGUGAAUCUGCGAAUUCUGCUGUAUAACCC [C37A U78A U80C]: the self-cleavage was 0.25.

Consider UAACAGGGGGCCACAGCAGAAGCGUUCACGUCGCAGUCAUUGUCAGAUUCUGGUGAAUCUGCGAAUUCUGCUGUAUACCUC [C37U C39A C40U U78C], for which the self-cleavage is 0.25.

Consider UAACAGGGGGCCACAGCAGAAGCGUUCACGUCGCAGUCCCUGUCAGAUUCUGGUGAACCUGCGAAUGCUGCGGUAAAUCUC [C37U U58C U67G U72G U76A], for which the self-cleavage came out at 0.06.
